In PubChem BioAssay AID588591 (National Center for Advancing Translational Sciences (NCATS), 2011):
Screen size: about 390,000 compounds; about 4,700 (1.2%) were called active. The inconclusive results got no clear call from the source; some entries with a clear call stand among them for comparison. The call rests on the fitted dose curve; in most records, active means well fitted inhibition curve with a large enough effect; inconclusive means small, poorly fitted or top-dose-only effect, or another doubt; inactive means no such curve, though single readings can be large or run the other way. Where the call is inconclusive, the potency comes from a doubtful curve fit.
Potency means the concentration at half of the fitted maximal effect; tags describe the fitted curve by direction and shape.

Each compound was assayed against DNA polymerase eta (Homo sapiens) (UniProt Q9Y253) (assay: qHTS for Inhibitors of Polymerase Eta). Details: recombinant Pol eta, fluorescent DNA replication assay; series mostly up to 114 µM.
Sequence of UniProt Q9Y253 (Q9Y253 whole entry, looked up): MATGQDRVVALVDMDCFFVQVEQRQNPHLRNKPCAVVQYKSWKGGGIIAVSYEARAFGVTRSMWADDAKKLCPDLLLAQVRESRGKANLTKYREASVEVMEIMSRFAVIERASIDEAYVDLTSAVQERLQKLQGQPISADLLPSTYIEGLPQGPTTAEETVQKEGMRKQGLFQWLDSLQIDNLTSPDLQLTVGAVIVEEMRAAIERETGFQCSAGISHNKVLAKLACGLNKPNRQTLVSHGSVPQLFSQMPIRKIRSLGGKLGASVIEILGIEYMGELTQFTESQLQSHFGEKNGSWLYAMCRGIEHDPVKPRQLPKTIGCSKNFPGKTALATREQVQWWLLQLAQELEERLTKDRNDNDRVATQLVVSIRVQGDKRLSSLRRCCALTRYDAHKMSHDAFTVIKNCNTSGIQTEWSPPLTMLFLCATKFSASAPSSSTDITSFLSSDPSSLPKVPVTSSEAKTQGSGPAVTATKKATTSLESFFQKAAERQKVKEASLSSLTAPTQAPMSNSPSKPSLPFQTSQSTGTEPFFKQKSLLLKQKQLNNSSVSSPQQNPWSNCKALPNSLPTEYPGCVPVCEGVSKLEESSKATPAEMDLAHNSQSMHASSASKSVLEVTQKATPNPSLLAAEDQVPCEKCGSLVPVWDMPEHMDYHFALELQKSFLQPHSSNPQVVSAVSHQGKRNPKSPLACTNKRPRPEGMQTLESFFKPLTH
Outline: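 Pol eta (10 nM) was preincubated with compounds for 15 min at room temperature, after which fluorescent replication substrate (50 nM final) was added to start the reaction. Fluorescence was read kinetically at 0 and 10 min.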
In the case of N/C(=N\N=C\c1ccnc2ccccc12)SC1CC(=O)N(c2ccc(Br)cc2)C1=O (configuration not stated), the Potency is reported as active: 25.1 µM. With O=C(CCc1nc2ccccc2[nH]1)Nc1ccc2c(c1)OCO2 the Potency was inconclusive: 14.1 µM [inhibitor, partial curve]. In the case of O=C(COC(=O)Cc1ccc(Cl)cc1)NCc1ccco1, the Potency is reported as active: 8.91 µM. In the case of COc1cc(NC(=O)CCC(=O)c2cccs2)cc(OC)c1, the Potency is reported as inconclusive: 35.5 µM [inhibitor, partial curve, poor fit]. COc1ccccc1NC(=O)c1c([N+](=O)[O-])cnn1C was tested, and the Potency was “inactive”. With Cc1ccc(-n2[nH]c(C)c(C=Nc3ccc(S(=O)(=O)Nc4nccs4)cc3)c2=O)cc1C the Potency was inconclusive: 22.4 µM [inhibitor, full curve]. With Cc1ccc(N/N=C/c2ccc3c(c2)OCCO3)cc1Cl the Potency was “inactive”. For O=C(Nc1ccccc1-c1nc2ccccc2s1)C1=COCCO1, the Potency was inconclusive: 28.2 µM [inhibitor, partial curve, poor fit]. With CCC(C)Oc1nc(C)cc(C)c1S(=O)(=O)c1ccccc1C (configuration not stated) the Potency was inconclusive: 79.4 µM [inhibitor, partial curve, poor fit]. Cc1ccc(NC(=O)CCNC(=O)c2ccccc2Cl)cc1S(=O)(=O)N1CCOCC1 was tested, and the Potency was “inactive”. For OCC1(Cc2ccc(Cl)cc2)CCN(CCCc2ccccc2)CC1, the Potency was “inactive”. For Nc1ccc(C(=O)N/N=C/c2cn(Cc3ccc(F)cc3)c3ccccc23)cc1, the Potency was “inactive”. With CCOC(=O)c1c(C)sc(-c2c(-c3cc(C)ccc3C)[nH]c3c2c(=O)n(C)c(=O)n3C)c1O the Potency was inconclusive: 89.1 µM [inhibitor, partial curve, poor fit]. For CCCCNC(=O)c1ccc2nc(-c3ccco3)c(-c3ccco3)nc2c1, the Potency was active: 14.1 µM. In the case of COc1ccc(-c2nc3scc(CCNS(=O)(=O)c4ccccc4F)n3n2)cc1, the Potency is reported as “inactive”. O=C(CN1CCCCC1)NC(=O)NC1CCCC1 was tested, and the Potency was “inactive”. Cc1cc(C)c(C(CC(=O)c2cccs2)C(C#N)C#N)c(C)c1 (configuration not stated) was tested, and the Potency was inconclusive: 14.1 µM [inhibitor, full curve, poor fit]. Cc1ccc(OCC(=O)NNC(=O)Cn2c(=O)cnc3ccccc32)cc1 was tested, and the Potency was inconclusive: 100 µM [inhibitor, partial curve, poor fit]. For Oc1ccc2oc3c(c2c1/C=N/n1cnnc1)CCCC3, the Potency was inconclusive: 14.1 µM [inhibitor, partial curve, poor fit]. With O=C(NCc1ccco1)c1ccccc1NS(=O)(=O)c1ccc2c(c1)OCCO2 the Potency was inconclusive: 17.8 µM [inhibitor, partial curve, poor fit]. With O=C(O)CSc1nc2ccccc2[nH]1 the Potency was “inactive”. With COc1cc(Br)cc2cc(C(=O)N3CCN(C(=O)c4ccco4)CC3)c(=O)oc12 the Potency was active: 79.4 µM. Cc1cc2[nH]c3c(c[n+](C)c4ccccc34)c2cc1C was tested, and the Potency was inconclusive: 17.8 µM [inhibitor, full curve, poor fit]. With C=CCN(CC=C)C(=S)Nc1ccc2nsnc2c1 the Potency was “inactive”. For CC(=O)Nc1cccc(-c2nc3ccc(NC(C)=O)cc3[nH]2)c1, the Potency was inconclusive: 31.6 µM [inhibitor, single point]. For COc1ccc(-c2ccc(=O)n(Cc3ccccc3)n2)cc1, the Potency was “inactive”. For C=CCn1c(=O)c(C#N)cc2c(=O)n3ccccc3nc21, the Potency was inconclusive: 22.4 µM [inhibitor, partial curve]. CCOc1ccc2nc(NC(=O)CSc3nc4c(c(=O)n(C)c(=O)n4C)n3C(C)C)sc2c1 was tested, and the Potency was inconclusive: 17.8 µM [inhibitor, partial curve, poor fit]. CC1(C)Cc2c(C#N)c(N3CCN(C(=O)c4ccccc4Cl)CC3)nc(-c3ccco3)c2CS1 was tested, and the Potency was active: 10 µM. For CCN(CC(=O)Nc1c(F)cccc1F)C(=O)c1ccc2c(c1)C(=O)N(c1ccccc1C)C2=O, the Potency was “inactive”. In the case of CCCCCCCCCCCCCCCC[n+]1ccc(C(N)=O)cc1, the Potency is reported as inconclusive: 89.1 µM [inhibitor, partial curve, poor fit]. CSc1ccc(CCNC(=O)CCc2c(C)nc3c(c(C)nn3-c3ccc(C)c(C)c3)c2C)cc1 was tested, and the Potency was inconclusive: 0.355 µM [inhibitor, partial curve, poor fit]. With COc1ccc2nc(NC(=O)c3nc(S(=O)(=O)Cc4ccccc4)ncc3Cl)sc2c1 the Potency was inconclusive: 14.1 µM [inhibitor, partial curve, poor fit]. COC(=O)C1=C(C)NC(C)=C([N+](=O)[O-])C1c1ccccc1C(F)(F)F (configuration not stated) was tested, and the Potency was “inactive”. CCc1nnc2c3ccccc3nc(Nc3ccc(F)c(Cl)c3)n12 was tested, and the Potency was “inactive”. With O=C(Nc1ccc(S(=O)(=O)N2CCCCC2c2cccnc2)cc1)c1ccc(F)cc1 (configuration not stated) the Potency was “inactive”. In the case of C=C1CCN(C(CC(C)C)C(=O)OC)S(=O)(=O)c2ccccc21 (configuration not stated), the Potency is reported as “inactive”. With CC1(C(=O)O)CC(C)(C(=O)O)CC(C)(C(=O)O)C1 (configuration not stated) the Potency was “inactive”. For S=c1[nH]nc(-c2ccco2)n1/N=C/C=C/c1ccco1, the Potency was active: 28.2 µM. O=C1NN(c2cccc(Br)c2)C(=O)/C1=C/c1cccs1 was tested, and the Potency was active: 79.4 µM. With CCOc1cc(/C=C2/C(=N)N3C(=NC2=O)SN=C3S(=O)(=O)C(C)C)ccc1OC(=O)c1ccco1 the Potency was active: 44.7 µM. With Cc1cc(C)c2nc(N3C(=O)C(O)=C(C(=O)c4ccco4)C3c3ccc(O)cc3)sc2c1 (configuration not stated) the Potency was inconclusive: 56.2 µM [inhibitor, partial curve, poor fit]. In the case of Cc1ccc(-c2nc3nc(C)cc(N4CCN(c5cccc(C)c5)C(C)C4)n3n2)cc1 (configuration not stated), the Potency is reported as inconclusive: 22.4 µM [inhibitor, full curve, poor fit]. With O=C(CN1C(=O)C(=O)N(Cc2ccco2)C1=O)NC1CCCCC1 the Potency was active: 31.6 µM. O=c1c(C(c2c(O)nc3n(c2=O)CCS3)c2cccc3ccccc23)c(O)nc2n1CCS2 was tested, and the Potency was active: 22.4 µM. With COCCCN1C(=O)c2ccc(C(=O)NCCc3ccccc3)cc2C1=O the Potency was “inactive”. CCN1C(=O)/C(=C\C=C2/C=CC=CN2CC)SC1=S was tested, and the Potency was inconclusive: 50.1 µM [inhibitor, partial curve].
